Reference: PubChem BioAssay AID540317 (National Center for Advancing Translational Sciences (NCATS), 2011)
Where “and” joins values, the source holds several entries; their conditions need not be identical. Equal entries are not always repeated. Among all 390,000 compounds or so, about 2,200 (0.56%) were called active. Inconclusive means that the source gave no clear call. Such entries were picked first, then a sample of the others. The call rests on the fitted dose curve; in most records, active means well fitted inhibition curve with a large enough effect; inconclusive means small, poorly fitted or top-dose-only effect; inactive means no such curve, though single readings can be large or run the other way. Potencies of inconclusive entries are doubtful fits and often do not repeat.

biological target: Chromobox protein homolog 1 (Homo sapiens) (UniProt P83916); test: HTS for Inhibitors of HP1-beta Chromodomain Interactions with Methylated Histone Tails; conditions: AlphaScreen HP1-beta / biotin-H3K9me3 peptide binding; series mostly up to 114 µM; further: nearly all actives have a fitted effect of over 70% in size
Sequence of UniProt P83916 (P83916 whole entry, looked up): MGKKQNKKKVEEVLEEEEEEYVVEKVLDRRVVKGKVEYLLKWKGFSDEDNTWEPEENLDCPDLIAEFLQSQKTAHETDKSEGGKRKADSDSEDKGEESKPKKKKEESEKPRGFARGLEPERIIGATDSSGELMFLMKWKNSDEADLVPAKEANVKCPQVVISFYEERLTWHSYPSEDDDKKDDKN
Method in brief: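 HP1-beta protein (50 nM final) preincubated 30 min at room temperature with biotinylated H3(1-18)K9me3 peptide (50 nM) in PBS pH 7.4, 0.01% Tween-20, then compound added for 30 min. AlphaScreen streptavidin donor/nickel chelate acceptor beads (10 ug/mL final), 30 min dark, luminescence read.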
Potency means the concentration at half of the fitted maximal effect; tags describe the fitted curve by direction and shape.

| Structure (SMILES) | Potency |
| --- | --- |
| O=C(Cc1ccccc1)N1CCN(Cc2ccccc2Cl)CC1 | inconclusive: 15.8 µM [inhibitor, full curve, poor fit] |
| CCCN1CCc2cc(O)cc3c2[C@H]1Cc1ccc(O)c(O)c1-3 | active: 11.2 µM |
| COc1cc(Br)c(CNCCc2ccc3c(c2)OCO3)cc1OC | inconclusive: 11.2 µM [inhibitor, full curve] |
| C[N+](C)(C)CC1CCCC(C[N+](C)(C)C)C1=O (stereo unspecified) | inconclusive: 56.2 µM [inhibitor, partial curve, poor fit] |
| CC(Cc1ccccc1Sc1ccc(O)cc1)N(C)C (stereo unspecified) | inactive |
| O=C(COc1ccc(Cl)cc1)N1CCN(Cc2ccc([N+](=O)[O-])cc2)CC1 | inconclusive: 14.1 µM [inhibitor, partial curve, poor fit] |
| COc1ccc(CNCCc2c[nH]c3ccccc23)c(OC)c1C | inconclusive: 50.1 µM [inhibitor, partial curve, poor fit] |
| COc1ccc(Br)cc1CNCCc1ccc2c(c1)OCO2 | inconclusive: 56.2 µM [inhibitor, partial curve, poor fit] |
| Cc1c2ccncc2c(C)c2c1[nH]c1ccccc12 | inactive |
| COc1cccc(CN2CCN(Cc3cccc(F)c3)CC2)c1 | inconclusive: 14.1 µM [inhibitor, full curve, poor fit] |
| CCCCc1ccc2[nH]cc(CCN)c2c1 | inconclusive: 56.2 µM [inhibitor, partial curve, poor fit] |
| CN(C)c1ccc(NC(=O)CN2C(=O)CN=C(c3ccccc3)c3cc(Cl)ccc32)cc1 | inconclusive: 44.7 µM [inhibitor, partial curve] |
| Cc1cc(/C=C2\C(=O)NC(=O)N(c3ccc(Br)cc3)C2=O)c(C)n1-c1cc(C(=O)O)cc(C(=O)O)c1 | inconclusive: 20 µM [inhibitor, full curve] |
| COc1ccc(OCC#CCN2CCCCCC2)cc1 | inconclusive: 17.8 µM [inhibitor, full curve] |
| COc1cc(OC)cc(C(=O)Nc2ccc(Br)cc2C(=O)c2ccccc2)c1 | inactive |
| NC(=O)C1CCN(/C=C2\C(=O)NC(=O)N(Cc3ccco3)C2=O)CC1 | inconclusive: 50.1 µM [inhibitor, partial curve] |
| O=C(Nc1ccc(Cl)cc1C(=O)c1ccccc1Cl)c1ccco1 | inactive |
| CN1CCN(Cc2c(F)cccc2Cl)CC1 | inconclusive: 28.2 µM [inhibitor, single point] |
| COc1ccccc1CN1CCN(C(=O)COc2ccccc2)CC1 | inconclusive: 28.2 µM [inhibitor, partial curve] |
| Cc1cc(N2CCCCC2)ccc1C=C1C(=O)N(C)C(=S)N(C)C1=O | inconclusive: 56.2 µM [inhibitor, partial curve, poor fit] |
| CN1CC[C@@]2(C)c3cc(O)ccc3N(C)[C@@H]12 | inconclusive: 3.16 µM [inhibitor, full curve, poor fit] and inconclusive: 35.5 µM [inhibitor, single point] |
| CCCCCCCSc1cc(OC)c(CCN(C)C)cc1OC | inconclusive: 44.7 µM [inhibitor, partial curve] |

| Structure (SMILES) | Potency |
| --- | --- |
| COc1cc(OC)c(OC)cc1CNCCc1ccc(OC)c(OC)c1 | inconclusive: 79.4 µM [inhibitor, partial curve] |
| O=C(O)C1CSC(c2cccnc2)N1 (stereo unspecified) | active: 17.8 µM |
| CN1CCC2(CC1)N=C(c1ccc(F)cc1)C(=S)N2 | inconclusive: 89.1 µM [inhibitor, single point] |
| CN1CCN(Cc2cc(C(C)(C)C)c(O)c(C(C)(C)C)c2)CC1 | inconclusive: 79.4 µM [inhibitor, partial curve] |
| CCN(CC)c1ccc(CN(C)CCc2ccc(OC)c(OC)c2)cc1 | inconclusive: 50.1 µM [inhibitor, partial curve] |
| O=C(Cc1ccccc1)N1CCN(C2CCCCCC2)CC1 | active: 79.4 µM |
| Cc1ccc(N2C(=O)NC(=O)/C(=C/c3ccoc3)C2=O)cc1 | active: 10 µM |
| CN(C)c1ccc(/C=C/C=C/c2sc3ccccc3[n+]2C)cc1 | inconclusive: 39.8 µM [inhibitor, partial curve] |
| COc1ccc(/C=C2\C(=O)NC(=S)N(C)C2=O)cc1C | active: 8.91 µM |
| COc1ccccc1OCC#CCN1CCCC(C)C1 (stereo unspecified) | inconclusive: 15.8 µM [inhibitor, full curve] |
| COCCCNC(=O)c1c(N)n(Cc2ccco2)c2nc3ccccc3nc12 | inactive |
| O=C1NC(=O)C(Sc2ccccc2[N+](=O)[O-])C(=O)N1 | inconclusive: 56.2 µM [inhibitor, partial curve, poor fit] |
| O=C(Nc1ccc(F)c(Cl)c1)N(Cc1ccc2c(c1)OCO2)C1CCN(Cc2ccccc2)CC1 | inactive |
| Cc1ccc2c(c1Cl)NC(C(=O)O)C1CC(Sc3ccccc3[N+](=O)[O-])C(Cl)C21 (stereo unspecified) | inconclusive: 31.6 µM [inhibitor, partial curve] |
| O=C1NC(=S)NC(=O)C1=Cc1ccc(OCC(=O)N2CCCC2)cc1 | inconclusive: 39.8 µM [inhibitor, partial curve] |
| COC(=O)C1=C(c2ccc(F)cc2OCc2ccccc2)C[C@@H]2CC[C@H]1N2C(=O)NCc1ccccc1 | inactive |
| CC1CN1P1(=O)OCC(C)([N+](=O)[O-])CO1 (stereo unspecified) | inactive |
| CCOc1cc2c(cc1OCC)-n1cccc1C(c1ccccc1O)NC2 (stereo unspecified) | inconclusive: 50.1 µM [inhibitor, partial curve, poor fit] |
| O=C(c1ccc(Cl)cc1)C1CCCN(Cc2cccn2-c2cccnc2)C1 (stereo unspecified) | inconclusive: 50.1 µM [inhibitor, partial curve, poor fit] |
| COc1ccc(C=C2C(=O)NC(=S)NC2=O)cc1 | inconclusive: 20 µM [inhibitor, single point] |
| CCc1ccc(CN2CCN(Cc3ccc(SC)cc3)CC2)cc1 | inconclusive: 20 µM [inhibitor, full curve, poor fit] |
| Cc1cc(C)cc(N2C(=O)NC(=O)/C(=C\C=C\c3ccco3)C2=O)c1 | inconclusive: 50.1 µM [inhibitor, partial curve, poor fit] |

| Structure (SMILES) | Potency |
| --- | --- |
| Nc1nc2c(s1)CCCCCCCCCC2 | inconclusive: 79.4 µM [inhibitor, partial curve, poor fit] |
| c1cc2c(cc1CCNC1CCCCCC1)OCO2 | inconclusive: 70.8 µM [inhibitor, partial curve, poor fit] |
| COc1ccc(OCC(=O)N2CCN(CC3CC4C=CC3C4)CC2)cc1 (stereo unspecified) | inconclusive: 15.8 µM [inhibitor, full curve, poor fit] |
| Cc1ccccc1-n1c(O)c(/C=C2/C(c3ccccc3)=Nc3ccccc32)c(=O)[nH]c1=O | inconclusive: 14.1 µM [inhibitor, partial curve, poor fit] |
| O=c1c2ccccc2nc(/C=C\c2ccccc2[N+](=O)[O-])n1-c1ccccc1O | inconclusive: 56.2 µM [inhibitor, single point] |
| Clc1ccc2c(c1)C(c1ccccc1Cl)=NCc1nnc(N3CCN(CCSc4ccccc4)CC3)n1-2 | inconclusive: 35.5 µM [inhibitor, partial curve] |
| Cc1ccc(Sc2ccc(C=C3C(=O)N(C)C(=O)N(C)C3=O)o2)cc1 | inconclusive: 70.8 µM [inhibitor, partial curve] |
| CCOc1ccc(C(C)=O)cc1Cc1c(O)[nH]c(=S)[nH]c1=O | inconclusive: 25.1 µM [inhibitor, full curve] |
| O=[N+]([O-])c1cc(F)c(N2CCCCC2)cc1Br | inconclusive: 22.4 µM [inhibitor, partial curve, poor fit] |
| Cc1noc(C)c1CSc1nc2cc(S(=O)(=O)N3CCOCC3)ccc2o1 | inconclusive: 35.5 µM [inhibitor, partial curve] |
| O=C1NC(=O)N(c2ccccc2)C(=O)/C1=C\c1ccc([N+](=O)[O-])s1 | active: 15.8 µM |
| CCN1CCN(c2cc(N3CCCC3)c([N+](=O)[O-])cc2F)CC1 | inactive |
| CC1CC(OP(O)(=S)c2ccc(N(C)C)cc2NC(=O)c2cccs2)CC(C)(C)C1 (stereo unspecified) | inconclusive: 14.1 µM [inhibitor, full curve] |
| Fc1ccc(C2=CCN(C(c3cccs3)c3nnnn3CCc3ccccc3)CC2)cc1 (stereo unspecified) | inconclusive: 31.6 µM [inhibitor, single point] |
| CCCN1CCC[C@@H]2Cc3[nH]ncc3C[C@H]21 | inactive |
| NC(=O)CSc1nc2cc(S(=O)(=O)N3CCOCC3)ccc2o1 | inconclusive: 12.6 µM [inhibitor, partial curve] |
| O=C1NC(=S)N(c2ccccc2)C(=O)/C1=C/c1ccco1 | active: 2.82 µM |
| Cc1ccc(N2C(=O)NC(=O)/C(=C\c3cc(C)n(-c4cc(C(=O)O)cc(C(=O)O)c4)c3C)C2=O)cc1 | inconclusive: 50.1 µM [inhibitor, partial curve] |
| COc1ccc(OCc2n[nH]c(=S)n2Cc2ccco2)cc1 | inconclusive: 39.8 µM [inhibitor, partial curve, poor fit] |
| COc1ccc(N2CCN(CCCN)CC2)cc1 | inconclusive: 50.1 µM [inhibitor, single point] |
| CCOc1ccc(CN(CCc2ccc3c(c2)OCO3)Cc2ccc(OC)c(Br)c2)cc1 | inconclusive: 14.1 µM [inhibitor, partial curve, poor fit] |
| COc1ccc2c3c1OC1C(O)C=CC4C(C2)[N+](C)(C)CCC341 (stereo unspecified) | inconclusive: 79.4 µM [inhibitor, single point] |
